Over roughly 33,000 sequences, “E-score (-0.5 to 0.5)” has its median near -0.056; the highest 2% begin near 0.38. The list shows a part of the results.
biological target: Stb4 (UniProt P50104); test: PBM E-score (8-mer binding enrichment) (E-score (-0.5 to 0.5)); higher = stronger / more preferred TF binding; most listed sequences are background and not binding sites; conditions: protein concentration: 200 nM; construct: GST-DNA-binding domain
Method in brief: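 For each ungapped eight-base word taken together with its reverse complement, the Universal PBM Analysis Suite assigned an E-score. Binding data came from GST-tagged yeast transcription factors, applied at about 100-200 nM, on universal all-10-mer Agilent arrays made double-stranded by primer extension. Fluorescent anti-GST marked bound protein, and scans were normalised with masliner.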

Sequence | PBM E-score
AGCTAAAC | -0.13
CGTTATGA | 0.0695
AAAACTGT | -0.183
AAACTTAC | -0.17
AGAGTCGA | -0.0614
CTGACGAA | -0.234
GACGCTAA | -0.141
GCACTGCA | -0.113
ATGGGATC | -0.00477
CCCCACCA | 0.0228
GTTTTTAA | -0.0532
AACCCATA | 0.053
ACCGTCGG | 0.3
ATCGCCGG | 0.269
GCTCCACC | 0.0363
ACCCCTCG | 0.122
AGTGACTG | -0.205
AGCTCAAC | -0.083
AATGAAAT | -0.00997
AACTCGGT | 0.286
AAAAAGAA | 0.0798
GCTCTACC | -0.159
AACATTGT | -0.0501
AGTATCCC | -0.0361
TCTCTGAA | -0.305

Sequence | PBM E-score
ATAGAATC | 0.0315
AATTACGG | 0.216
ACATGATG | -0.119
ATGATGGC | -0.0488
AGCTACAA | -0.126
ACGAGAGA | -0.116
ATTCAGTC | -0.0427
AAAATAGA | 0.124
AAATCACA | 0.0724
AGCGGCCA | -0.0341
CGATCCCC | 0.126
CCCGTGCC | 0.271
GATGCTAC | -0.064
AGTGCTGC | -0.217
CAGTTATC | -0.00517
CAGGTTAA | -0.272
AAACTCTA | -0.032
CTATGAGA | -0.235
AAAATCTA | 0.0971
AACCCAGG | -0.167
ATTGCGAA | -0.0863
AGTCGGTA | 0.273
ACTCTACC | -0.0488
TGGAAGAA | 0.0743
ATCATGCC | -0.0651

Sequence | PBM E-score
GGTGGTAA | 0.166
GAGACTCC | -0.0168
CAAAAGTG | -0.308
CGCTGTCC | 0.0145
AGGAGAGA | -0.185
GTCAAGTA | -0.239
CGAAAGTC | 0.185
CACTGCGC | -0.0903
AAAGAGTG | -0.107
AGTAAAAG | 0.0577
GTCCACTA | -0.303
CCAGACCG | -0.0146
CATCCACC | 0.0619
GTAAGAAA | 0.00794
AACGAGTC | -0.0122
AGCCTCGC | -0.0941
AGCATTGG | -0.12
CATAACCA | -0.0583
ATTAGTGA | 0.00313
GTGAGTCA | -0.326
AGCCCGGC | 0.211
CCCACAGC | -0.145
AAAGTACT | 0.0129
ATAATTAG | 0.171
ACCATGTG | -0.171

Sequence | PBM E-score
AAAGCGTC | -0.194
TCCCATCA | -0.227
GCGTGGAA | -0.0528
GTACAAAC | -0.0206
TATGGTAA | 0.0509
GGCATGTA | 0.0372
CCCGACGA | 0.34
CCTAGTAG | -0.0242
ATTGATAA | -0.225
CCTGGTAA | -0.122
CAGATGGG | -0.21
ACCATCGT | -0.189
ACCGAATA | 0.215
CAAGACGG | 0.123
GTCCCGGA | 0.331
CACCATGC | -0.0998
GAGTTTTA | 0.00571
AGCACAAA | -0.00696
GCGGAATA | 0.278
GCATGAAC | -0.0456
CGGCGTTC | 0.202
GTGGCTTA | -0.317
CGGTAGGC | 0.146
CTTCCAAC | -0.152
CGCAGTCC | -0.114

Sequence | PBM E-score
GAGGCTTA | 0.0234
CGTAGCAA | -0.289
AGTGTACA | -0.176
AGGGGAGA | -0.0188
TTTTAAAA | -0.0647
TCTCGGCA | 0.446
CCCCTTAA | -0.225
ACACATAA | -0.108
GCACGCAC | -0.21
AACGGGAG | 0.258
TCACGCGA | -0.057
AAGCTGCT | -0.178
TAGACGGA | 0.164
GAGCTTTA | 0.0265
GCGGGACC | 0.247
CCTCGAGA | -0.185
ACCTCACT | -0.107
ACACGTAG | -0.291
CGTGACGA | -0.0351
TCCCGCAA | 0.166
ACACTACA | -0.0985
GGAGTTGA | 0.0931
ACGGAGGC | 0.116
GATCACGC | -0.0587
ACGAATAG | -0.303

Sequence | PBM E-score
CTCCTAGC | -0.167
CCAGTAGG | -0.194
TATTACCA | -0.0981
ACTCTCCG | 0.205
CCCCCCTC | -0.267
TATAGTAA | 0.0133
TAGTACGA | -0.0838
AAGCGCAT | -0.097
CGAGTCGC | 0.139
ACCAATTA | -0.163
GACAACAC | -0.0624
TATACAGA | -0.252
CGCATACA | -0.0747
GCGGTAGA | -0.0188
ACTCTTAT | -0.109
CATCGCAC | -0.124
TCAGGACA | -0.147
CGCGTCTC | -0.016
GACCGTTA | -0.0227
ACCCACTG | 0.152
CAGTACCC | -0.0162
GGCGTTCA | -0.0303
ACCTAAAA | -0.17
ATGGTTGG | 0.0462
AGTAATGG | -0.0854

Sequence | PBM E-score
ATTTCGTG | -0.141
AGGACCCG | 0.286
GAACCTTA | 0.219
CGCCAACA | 0.0585
CTTCTACA | -0.15
GCAGGGAA | 0.016
CTTGTAAA | 0.107
AATCGGAA | 0.425
AGCTTCCT | -0.104
AAAACCGT | 0.00511
GGGGAGGA | 0.0688
ATGATCAG | -0.213
CAGTAGTA | -0.167
TCGCATCA | 0.124
GAGTATCA | -0.0369
ACCACCAA | 0.031
ATGTGAAA | -0.196
ACAATTCT | -0.064
GCTGTAGA | -0.0384
CTCAGTGA | -0.292
AAGTGCTC | -0.0896
TCGTCCCA | -0.24
